Test results reported in PubChem BioAssay AID540267 (National Center for Advancing Translational Sciences (NCATS), 2011).
Among all 340,000 compounds or so, about 530 (0.16%) were called active. Inconclusive results, whose numbers are uncertain, are shown with a selection of clear calls. Cut-off read from the data, not from the text of the source: active = activity change below about -80%; inconclusive = between about -30% and that limit; inactive = weaker than that.

test: Small Molecules that selectively kill Giardia lamblia: qHTS; details: Giardia lamblia trophozoite viability; at 7.66 µM; hits give low values;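 note: parasites exposed to compound for two days anaerobically before the ATP read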
Procedure, shortened: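 Anaerobic 48 hrs incubation at 37 deg C of 100 trophozoites/well with test compounds; ATPLite 1-Step luminescence, 15-30 min RT, reports cellular ATP as viability.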
% is set by controls: 0 for no effect and ±100 for the full control effect.

Compound	activity change
C=CCNC(=S)NNC(=O)c1cccn(Cc2ccc(Cl)cc2Cl)c1=O	inactive: -15.2%
COc1ccc(NC(=O)CCCc2ccccc2)cc1OC	inactive: -8.06%
Cc1cccc(N2CCN(C(=O)c3ccc4nc(N5CCCCC5)sc4c3)CC2)c1C	inactive: -3.21%
Cc1ccc(-c2cnc3cc(C)nn3c2)cc1	inconclusive: -46.5% [inhibitor]
O=C(NC[C@@H]1CCCO1)c1cccc2c1C(=O)c1ccc(N3CCOCC3)cc1S2(=O)=O	inconclusive: -37% [inhibitor]
CCOC(=O)c1sc(=S)n(-c2ccc(OC)cc2)c1C	inactive: 5.99%
N#C/C(=C(/O)C(Cl)(Cl)Cl)c1nc2ccccc2[nH]1	inconclusive: -37.1% [inhibitor]
CCOc1ccc(-n2cc(-c3ccccc3)c3c(N4CCOCC4)ncnc32)cc1	inactive: 3.35%
N#CCCCC#Cc1ccc2c(c1)COc1c3ccccc3nn1-2	inconclusive: -33% [inhibitor]
C#CCOCCOCCOCCNc1nc(N2CCN(C(=O)CCCCCCCCCCNC(=O)[C@H](CCCCN)n3cc(C)nn3)CC2)nc(N2CCN(C(=O)CCCCCCCCCCNC(=O)[C@H](CO)n3cc(CCCSC)nn3)CC2)n1	inconclusive: -42.1% [inhibitor]
O=C(NNC(=O)C12CC3CC(CC(C3)C1)C2)c1cccc([N+](=O)[O-])c1	inconclusive: -34.4% [inhibitor]
COc1ccc(/C(C)=N/NC(=O)c2cccc(S(=O)(=O)N3CCCC3)c2)c(O)c1	inconclusive: -34.4% [inhibitor]
COc1ccccc1N1C(=O)Cc2ccccc2C1=O	inactive: -13.5%
COC(=O)[C@]1(CC(C)C)N[C@H](c2ccc(-c3cccc(Cl)c3)cc2)[C@@H]2C(=O)N(C)C(=O)[C@@H]21	inconclusive: -32% [inhibitor]
Cc1nc(SCC(=O)NCC2CCCO2)c2c3c(sc2n1)CCCC3 (stereo not drawn)	inconclusive: -32.5% [inhibitor]
O=c1[nH]cnc2ccc([N+](=O)[O-])cc12	inconclusive: -66% [inhibitor]
Cc1[nH]nc(SCC(=O)NC2CCCC2)c1[N+](=O)[O-]	inconclusive: -33.5% [inhibitor]
CN(C/C=C/C#CC(C)(C)C)Cc1cccc2ccccc12	inconclusive: -39.8% [inhibitor]
O=C(/C=C/c1ccccc1[N+](=O)[O-])c1ccccc1Br	inactive: 22%

Compound	activity change
S=c1[nH]nc(-c2cccs2)n1C1CCCCC1	inconclusive: -30.4% [inhibitor]
O=C(NCN1C(=O)C2C3C=CC(C3)C2C1=O)Nc1nccs1 (stereo not drawn)	inconclusive: -30% [inhibitor]
O=C(COc1ccc2c(c1)oc(=O)c1ccccc12)NC(Cc1ccc(Cl)cc1)C(=O)O (stereo not drawn)	inconclusive: -30.2% [inhibitor]
CC(C)Oc1ccc(Cc2cnc(=S)[nH]c2N)cc1	inactive: -18.2%
COc1ccccc1N1CCN(/N=C/c2cc(OC)c(O)c(OC)c2)CC1	inactive: -1.57%
O=S(=O)(NCC1CN(S(=O)(=O)c2c(F)cccc2F)C1)c1ccc2c(c1)OCCO2	inconclusive: -32% [inhibitor]
COC(=O)CCC(=O)Nc1ccc(NC(C)=O)cc1	inconclusive: -36.4% [inhibitor]
O=c1cnnc(N/N=C/c2ccc3c(c2)OCO3)[nH]1	inactive: -11.8%
CCn1nnc2cc(C(=O)NCCc3ccccc3F)ccc21	inconclusive: -36.4% [inhibitor]
COc1ccc(NC(=O)c2cccc(NC3=NC4CS(=O)(=O)CC4S3)c2)cc1Cl (stereo not drawn)	inconclusive: -41.2% [inhibitor]
CCCn1c(N)c(C(=O)CSc2nc3ncc(Cl)cc3[nH]2)c(=O)[nH]c1=O	inconclusive: -31.7% [inhibitor]
Cc1ccc(-n2c(C)nnc2SCC(=O)NC2CC2)cc1	inconclusive: -35.8% [inhibitor]
S=C(NCCc1ccccc1)N/N=C/c1cccs1	inconclusive: -47.2% [inhibitor]
O=C(c1ccccc1SCc1ccccc1)N1CCCCCC1	inconclusive: -33.5% [inhibitor]
CCOc1ccc(S(=O)(=O)N(C)c2ccc(OCC(=O)N3c4ccc(C)cc4C4CN(C)CCC43)cc2)cc1 (stereo not drawn)	inactive: 6.26%
CCN(CC)CC1CN(N=Cc2ccc([N+](=O)[O-])o2)C(=O)O1 (stereo not drawn)	inconclusive: -34.3% [inhibitor]
CN(C)C1CCN(Cc2cc(COCc3ccccc3)c3cccnc3c2O)C1 (stereo not drawn)	inconclusive: -33.6% [inhibitor]
COc1ccc(NC(=O)OCCn2c([N+](=O)[O-])cnc2C)cc1	active: -86.6%
O=C(O)c1ccccc1-n1cccc1C(=O)O	inconclusive: -31.9% [inhibitor]
